The results in this text go back to PMC4336329 (PLoS ONE, 2015).

Among all 310,000 compounds or so, about 2,200 (0.71%) showed an effect of 50% or more. Effects have a minus sign here. The list shows a part of the results.

The target of the experiment is human ether-à-go-go-related gene (hERG) potassium channel (human, UniProt Q12809). Put plainly: primary screen, population patch clamp on CHO cells stably expressing hERG.
Sequence of human ether-à-go-go-related gene (hERG) potassium channel (Q12809 whole entry, looked up): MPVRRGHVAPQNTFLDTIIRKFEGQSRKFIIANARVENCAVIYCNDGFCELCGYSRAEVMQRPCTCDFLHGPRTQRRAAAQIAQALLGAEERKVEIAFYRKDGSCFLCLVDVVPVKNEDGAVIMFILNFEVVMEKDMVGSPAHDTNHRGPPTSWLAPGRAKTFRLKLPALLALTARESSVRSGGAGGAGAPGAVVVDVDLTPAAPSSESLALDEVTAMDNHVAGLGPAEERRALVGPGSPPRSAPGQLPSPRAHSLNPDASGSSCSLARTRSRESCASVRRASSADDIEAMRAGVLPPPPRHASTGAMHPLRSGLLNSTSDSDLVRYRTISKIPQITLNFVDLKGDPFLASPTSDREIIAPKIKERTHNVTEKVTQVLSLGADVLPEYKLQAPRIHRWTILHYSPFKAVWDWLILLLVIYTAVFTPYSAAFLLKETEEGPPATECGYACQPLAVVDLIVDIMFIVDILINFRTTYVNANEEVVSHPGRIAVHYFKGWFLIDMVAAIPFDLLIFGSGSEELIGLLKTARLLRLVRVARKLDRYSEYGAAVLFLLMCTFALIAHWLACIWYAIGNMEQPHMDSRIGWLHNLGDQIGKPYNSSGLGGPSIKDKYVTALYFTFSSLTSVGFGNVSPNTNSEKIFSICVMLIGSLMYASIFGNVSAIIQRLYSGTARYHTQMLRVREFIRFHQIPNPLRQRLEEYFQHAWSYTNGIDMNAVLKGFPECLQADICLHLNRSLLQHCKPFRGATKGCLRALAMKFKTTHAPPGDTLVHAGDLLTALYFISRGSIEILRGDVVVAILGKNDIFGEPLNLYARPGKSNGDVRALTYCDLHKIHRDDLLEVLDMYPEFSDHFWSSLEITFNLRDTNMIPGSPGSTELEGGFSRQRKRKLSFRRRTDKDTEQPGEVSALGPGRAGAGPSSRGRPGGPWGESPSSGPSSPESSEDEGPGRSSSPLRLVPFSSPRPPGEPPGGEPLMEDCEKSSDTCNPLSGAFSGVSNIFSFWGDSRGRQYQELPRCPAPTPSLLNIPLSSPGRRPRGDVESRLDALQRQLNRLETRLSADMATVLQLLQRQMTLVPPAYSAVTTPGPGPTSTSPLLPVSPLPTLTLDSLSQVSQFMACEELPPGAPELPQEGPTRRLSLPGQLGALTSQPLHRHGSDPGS
For `COc1ccc([C@H]2[C@H](C(=O)OC(C)(C)C)N3N=Cc4ccccc4C3C23C(=O)c2ccccc2C3=O)cc1OC` (stereo partly drawn), the “hERG current change (%, negative = inhibition) at 1uM” value worked out at 8.39%.
The result for `CCOC(=O)C1(CC2CCCCO2)CCN(Cc2ccc(OC)cc2F)CC1` (stereo not drawn) reads -19.8%.
The figure for `COC(=O)CSc1nnc(-c2ccncc2)o1` is -3%; for `Cc1ccc(NS(=O)(=O)c2cc(C(=O)Nc3cccc([N+](=O)[O-])c3)ccc2C)cc1` it is 9.92%.
The figure for `Cn1nnnc1SCCNS(=O)(=O)c1ccccc1` is 6.09%; for `CC12CCC(C(=O)Nc3ncc([N+](=O)[O-])s3)(OC1=O)C2(C)C` (stereo not drawn) it is 0.895%; for `CCc1noc(C)c1C(=O)Nc1ccc(F)c(F)c1` it is 2%.
On to `COc1ccc(C(OC(=O)c2ccco2)C(=O)NCc2ccc(C)cc2)cc1` (stereo not drawn), for which the “hERG current change (%, negative = inhibition) at 1uM” value is recorded as 17.5%.
The figure for `O=C(CSc1ncnc2c1oc1ccccc12)OCc1ccccc1` is 10.5%; for `CCOC(=O)c1cnc(-c2ccccc2)nc1N(C)C` it is -5.06%; for `N#Cc1c(C(F)(F)F)cc(-c2ccco2)nc1SCc1ccccn1` it is 17.1%.
The figure for `CCN(CC)CCCNC(=O)c1cc(-c2cccc(Cl)c2)on1` is -36.5%; for `O=C(COC(=O)c1cccc(S(=O)(=O)N2CCc3ccccc32)c1)Nc1ncc(Cl)cc1Cl` it is 4.59%; for `O=S(=O)(NNC(=S)NCC1CCCO1)c1cc(Cl)ccc1Cl` (stereo not drawn) it is 10.8%.
The figure for `O=C(CC(c1ccccc1)c1ccccc1)Nc1ccncc1` is 6.4%; for `CCCOc1ccc(/C(O)=C2/C(=O)C(=O)N(CCN(C)C)C2c2ccco2)cc1` (stereo not drawn) it is 3.23%.
`CC(CC(=O)Nc1ccc2c(c1)OCCO2)c1ccccc1` (stereo not drawn): the “hERG current change (%, negative = inhibition) at 1uM” value is recorded as 20.9%.
The figure for `COCCNC(=O)c1c(N)n(CCCn2ccnc2)c2nc3ccccc3nc12` is 16.8%.
The figure for `C(=C\c1nc(-c2ccncc2)no1)/c1ccccc1` is 9.45%; for `CCCSc1ccc([C@@H]2[C@@H]3C(=O)N(C)C(=O)[C@@H]3[C@]3(C(=O)OC)CCCCN23)cc1OC.O=C(O)C(F)(F)F` it is -2.11%.
Regarding `CCCNC(=O)NC1C(NC(=O)NCCC)N(C)C(=O)N1C` (stereo not drawn), the “hERG current change (%, negative = inhibition) at 1uM” value amounted to 5.39%.
The figure for `CCn1c(O)c(N=NC(=O)Cc2csc(N3CCOCC3)n2)c2ccccc21` is 3.37%; for `Cc1cc(NCc2ccccn2)ccc1Br` it is 5.23%; for `O=C(NC(Cc1ccccc1)C(=O)O)/C(=C\c1ccco1)NC(=O)c1ccco1` (stereo not drawn) it is 5.94%.
`CCS(=O)(=O)N1CCc2nc(-c3ccccc3)sc2C1`: the “hERG current change (%, negative = inhibition) at 1uM” value was -5.31%.
The figure for `CN1CC(=O)N(C)c2nc(Br)n(C)c2C1=O` is -4.07%.
Take `O=C(N/N=C/c1ccc(Sc2ccccn2)o1)c1cc2ccccc2cc1O`: the “hERG current change (%, negative = inhibition) at 1uM” value was 11%.
As for `O=C(NCc1cccc(Cl)c1)C1CCC(=O)N(C2CC2)C1` (stereo not drawn), the “hERG current change (%, negative = inhibition) at 1uM” value is 12.3%.
On to `CN(CCC#N)C(=O)CC1(Cc2ccccc2)CCOC(C)(C)C1` (stereo not drawn), for which the “hERG current change (%, negative = inhibition) at 1uM” value was 6.25%.
As for `COC(=O)c1ccc(COc2cccc(C)c2C)cc1`, the “hERG current change (%, negative = inhibition) at 1uM” value is on record as -9.02%.
The figure for `Cn1c(N)c(C(=O)c2ccc(Cl)cc2)c(=O)n(C)c1=O` is 9.49%; for `Cc1ccc(C(=O)O/N=C(\N)c2ccccn2)cc1Cl` it is 17.9%.
`CCC(=O)OC1c2ccccc2C(=O)N1Cc1ccccc1` (stereo not drawn): the “hERG current change (%, negative = inhibition) at 1uM” value is recorded as -6.18%.
The figure for `COc1ccc(C(=O)N/N=C/c2ccc(N3CCOCC3)s2)cc1OC` is 13.6%; for `CCSC1=NCCN1S(=O)(=O)c1ccc(NC(C)=O)cc1` it is -1.02%.
The figure for `CC(=O)c1ccc(OCC(=O)Nc2ccccc2C(=O)NC2CC2)cc1` is 18.3%.
Take `COC(=O)C1=C(C)N(Cc2cccnc2)C(=O)/C1=C\c1cccs1`: the “hERG current change (%, negative = inhibition) at 1uM” value is given as -43.3%.
The result for `COC(=O)c1ccc(NC(=O)COc2ccc(C3C(C#N)=C(N)Oc4c3ccc3ccccc43)cc2OC)cc1` (stereo not drawn) reads 6.75%; that for `COc1cc(/C=C(\C#N)C(=O)Nc2ccc(SC(F)F)cc2)cc(OC)c1OC`, 14.9%.
The result for `Cc1nnc(SCC(=O)Nc2ncc3c(n2)CC(c2ccccc2)CC3=O)s1` (stereo not drawn) reads 11.7%; that for `O=C(/C=C/c1cccc([N+](=O)[O-])c1)NCc1cccnc1`, 2.85%.
As for `CCCc1nc2c(sc3nc4c(cc32)COC(C)(C)C4)c(=O)n1Cc1ccco1`, the “hERG current change (%, negative = inhibition) at 1uM” value is recorded as -6.18%.
As to `O=C1CC(c2ccccc2)=NN1c1nc(-c2ccccc2)cs1`, the “hERG current change (%, negative = inhibition) at 1uM” value worked out at 14.2%.
The figure for `Cc1ccc(NC(=O)CN2CCC(C(=O)c3ccc4c(c3)OCCO4)CC2)cc1` is 7.38%; for `Cc1nnc(SCC(=O)c2ccccc2)n1Cc1ccccc1` it is 12.3%.
The result for `Cc1ccc(-n2cc(CN(C)CCc3cn[nH]c3)c(-c3cccc(C)c3)n2)cc1` reads -15.4%.
The result for `CC(=O)c1sc(NC(=O)CS(=O)(=O)c2ccc(F)cc2)nc1C` reads -11.4%.
In the case of `COc1ccccc1C(CNC(=O)c1ccc(C)c(S(=O)(=O)N2CCCCC2)c1)N(C)C` (stereo not drawn), the “hERG current change (%, negative = inhibition) at 1uM” value is 3.32%.
The result for `CCN1CCN(Cc2ccc(NC(=O)c3ccc(C)c(NC(=O)C(=O)c4c[nH]c5ccccc45)c3)cc2C(F)(F)F)CC1.O=C(O)C(F)(F)F` reads 11.1%; that for `CC(=O)c1c(C)[nH]c(C2=NNC(=NCc3ccccc3)SC2)c1C`, 18.2%.
As for `Cl.OCc1cc(CO)c(O)c(CCc2ccccc2)n1`, the “hERG current change (%, negative = inhibition) at 1uM” value worked out at 8.52%.
The figure for `CCc1ccc(CN(C)C(=O)CCc2nnc(CCc3cccc(OC)c3)o2)nc1` is -4.58%; for `COc1ccc(-c2nn(-c3ccccc3)cc2/C=C(\C#N)S(=O)(=O)c2ccccc2)cc1OC` it is 18.2%.
With `CSc1cccc(NC(=O)CNC(=O)C2CCCCC2)c1`, the “hERG current change (%, negative = inhibition) at 1uM” value came out at 11.1%.
For `COc1ccc(NC(=O)/C=C/c2ccc(Br)o2)cn1`, the “hERG current change (%, negative = inhibition) at 1uM” value is 15.7%.
On to `COc1ccc(-n2c(C)nc3ccccc3c2=O)c([N+](=O)[O-])c1`, for which the “hERG current change (%, negative = inhibition) at 1uM” value was -1.42%.
With `C=CCn1c(O)c(C(C)=NCCO)c(=O)[nH]c1=O`, the “hERG current change (%, negative = inhibition) at 1uM” value was determined as 11.6%.
The figure for `O=C(Nc1nc(-c2ccc(F)cc2)cs1)C1CCN(C(=O)c2ccc(F)cc2)CC1` is -12.9%; for `CCc1nn(C(C)C(=O)NCCN2CCN(c3cccc(C)c3C)CC2)c(=O)c2cc3occc3n12` (stereo not drawn) it is -12.2%; for `O=C(Nc1cccc(O)c1)c1cccc(S(=O)(=O)Nc2cccc(O)c2)c1` it is 16%.
The result for `C=CCn1c(COc2ccccc2F)nnc1SCC(=O)N1CC(=O)Nc2ccccc21` reads -17.7%; that for `CCC(C)N(C(=O)CSc1nc2ccc(OC)cc2[nH]1)C1CCS(=O)(=O)C1` (stereo not drawn), 16.6%.
Regarding `COc1cc(NC(=O)c2ccc(F)cc2)c(OC)cc1NC(=O)CN1CCOCC1`, the “hERG current change (%, negative = inhibition) at 1uM” value turned out to be 3.57%.
The result for `C/C(N)=C(/C#N)C(=O)CSc1cc(C)c2ccccc2n1` reads 9.74%; that for `CN(CCO)c1cc(N2CCCCC2)c2nonc2c1[N+](=O)[O-]`, 15%; that for `COc1ccc(C(=O)C2CCCN(Cc3cccn3-c3nccs3)C2)cc1F` (stereo not drawn), -91.4%.
The figure for `Nc1nonc1C(=O)N/N=C/c1cc2c(cc1Br)OCO2` is -2.52%.
The figure for `O=C(Nc1ccccc1N1CCN(C(=O)c2ccc(Cl)cc2)CC1)c1cccnc1` is -77%; for `CC(C)(O)C1=NOC(c2ccccc2)C1` (stereo not drawn) it is 10.9%; for `CCCCn1c(SCC(=O)N2CCOCC2)nc2ccccc2c1=O` it is -39.4%.
`COCCSc1nnc(NC(=O)c2ccc([N+](=O)[O-])cc2)s1`: the “hERG current change (%, negative = inhibition) at 1uM” value is given as 12.7%.
The result for `C=CCN1C(=O)NC(c2ccccc2)(C(F)(F)F)S/C1=C(\C#N)c1nnc(N2CCOCC2)n1-c1ccccc1` (stereo not drawn) reads 13.9%; that for `CN(CC(=O)N1CCN(c2cccc(Cl)c2)CC1)S(=O)(=O)c1cccs1`, 0.526%.
As to `Cc1cccc2c1N1C(=O)c3c(C(=O)O)cccc3C1CC2C` (stereo not drawn), the “hERG current change (%, negative = inhibition) at 1uM” value is reported as 2.23%.
The figure for `Cc1cc(OC(C)C(=O)Nc2cccnc2)ccc1Cl` (stereo not drawn) is 9.07%; for `O=C(NC1CCCC1)c1ccccc1-c1ccccc1` it is 9.04%.
For `CCCC(C)C1(CC)C(=O)NC(=Nc2ccccc2)NC1=O` (stereo not drawn), the “hERG current change (%, negative = inhibition) at 1uM” value is 9.31%.
With `COc1ccccc1NC(=O)CN(C)S(=O)(=O)c1cc(C)ccc1OC`, the “hERG current change (%, negative = inhibition) at 1uM” value came to 3.45%.
The result for `Cl.OCCNCc1cccc(OCc2ccc(Cl)cc2)c1` reads 7.79%; that for `COc1ccc(/C(C)=N/NC(=O)CNC(=O)COc2ccccc2)c(OC)c1`, 14.6%; that for `COc1ccc(/C=N/NC2=NS(=O)(=O)c3ccccc32)cc1`, 11.9%.
The result for `CCCN(C(=O)Cc1c(C(=O)O)n(C)c2ccccc12)c1cccc(C)c1` reads 16%.
Take `Cc1ccc(S(=O)(=O)N(C)C)cc1NC(=S)N1CCCCC1CO` (stereo not drawn): the “hERG current change (%, negative = inhibition) at 1uM” value came to 6.21%.
As for `COc1ccc(OC)c(CN2CCN(C(=O)CNC(=O)c3cc(C)cc(C)c3)CC2)c1`, the “hERG current change (%, negative = inhibition) at 1uM” value is -10%.
The result for `CC1CCCN(C(=O)C2CCN(c3nc(-c4ccccc4)nc4c3CCC4)CC2)C1` (stereo not drawn) reads -0.788%; that for `CN(C(=O)C1CCC(=O)N(Cc2cccc(F)c2)C1)C1CCCCC1` (stereo not drawn), 3.07%; that for `Cc1csc(NC(=O)c2cc(=O)[nH]c3ccc(S(=O)(=O)N4CCOCC4)cc23)n1`, 1.48%.
